# Read counts are not given, so values of variants with three or more changes are uncertain.
# B1: CPEB3 Ribozyme (parent)
# chain: UAACAGGGGGCCACAGCAGAAGCGUUCACGUCGCAGCCCCUGUCAGAUUCUGGUGAAUCUGCGAAUUCUGCUGUAUAUCUC
# Variants of: B1
# Experiment: self-cleavage, relative activity (ratio to wild type); higher = more cleavage; in vitro, sequencing
# Outline: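 Relative activity was defined as the cleaved/total read fraction for a variant divided by the same fraction for the unmutated ribozyme. CPEB3 self-cleaving ribozyme libraries were made by rounds of error-prone PCR, barcoded, and transcribed in vitro with T7 RNA polymerase for 5 hours at 37°C, and cleavage ran through transcription plus a 15 min DNase I step before EDTA. Illumina sequencing of template-switched reverse transcripts gave the reads, and DNA sequencing mapped the barcodes. Averages come from three batches, using variants with at least 5 reads.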
row,Variant,self-cleavage
1,A5G U31C U49C A75U,0.56
2,A5G U31C U74G,0.83
3,A5G U31G A47G U49A U72C,0.48
4,A5G U41A U43A U54A U60A,0.07
5,A5G U41C G46C A75U U80C,0.07
6,A5G U41C G61A A64G U67C A77U,0.06
7,A5G U41C G63A,0.39
8,A5G U41C U43A A47G U66C,0.26
9,A5G U41C U66C A77G,0.11
10,A5G U43A A45G A47G U74C,0.28
11,A5G U43A A57G,0.79
12,A5G U43C A45C,0.52
13,A5G U43C A65G,0.22
14,A5G U43C G55A,0.18
15,A5G U43C G70A,0.1
16,A5G U43C U49A A57C,0.11
17,A5G U43C U60A,0.3
18,A5G U43C U60C A65G,0.41
19,A5G U43G U76A,0.63
20,A5G U48C G53A U54C,0.32
21,A5G U48C U51A A56G,0.24
22,A5G U48C U69C A75G,0.47
23,A5G U49A A56U U67C,0.04
24,A5G U49A U69G,0.47

row,Variant,self-cleavage
1,A5G U49C A65G,0.05
2,A5G U49C U58A U78C,0.18
3,A5G U49C U80C,0.56
4,A5G U51A A64G U74C,0.87
5,A5G U51A C71A,0.14
6,A5G U51A G70A,0.12
7,A5G U51A U69C A75U,0.42
8,A5G U51C A65U,0.28
9,A5G U51G U78C,0.35
10,A5G U54A A65U,0
11,A5G U54C A56G U72C,0.59
12,A5G U54C U72C,0.83
13,A5G U58A U69C,0.12
14,A5G U58C U66C,0.19
15,A5G U60C U66A,0.24
16,A5G U60C U67C U80C,0.11
17,A5G U67G U69A G73A,0.31
18,A5G U80A C81U,0.98
19,A5U A13G A18G U41C C71A,0.1
20,A5U A13G A18U U78A,0.29
21,A5U A13G A20G G55U A77U,0.68
22,A5U A13G A28U U72C,0.66
23,A5U A13G G22A C44A,0.07
24,A5U A13G U26C A28U U31A U60C U69G,0.06

row,Variant,self-cleavage
1,A5U A13G U26C A45U G61A U76A,0.28
2,A5U A13G U43C,0.43
3,A5U A13G U58C U72C A77G,0.57
4,A5U A13U A15C U31C U41G A56U,0.09
5,A5U A13U A15U A20U A45G U60C,0.29
6,A5U A13U C14A,0.96
7,A5U A13U C39U,1.18
8,A5U A13U C40A U60A U78C,0.09
9,A5U A13U G22C U48A U58C,0.19
10,A5U A13U G22U,0.18
11,A5U A13U U25C G61U U72G A75G,0.12
12,A5U A13U U26C U41C U43A U60A,0.14
13,A5U A13U U31C A47U,0.51
14,A5U A15C A21G U26A A47U U67C,0.09
15,A5U A15G A21G A47G A77U,0.92
16,A5U A15G A35U A57U,0.28
17,A5U A15G C23G C32A,0
18,A5U A15G U25C A47G U48C U69C,0.27
19,A5U A15G U43A U49A U60A,0.33
20,A5U A15U A20G A28U U41C,0.46
21,A5U A15U A47G A56U C68U,0.23
22,A5U A15U A64G U67G,0.17
23,A5U A15U G24A C29U U41C U72C A77G,0.04
24,A5U A15U U25A U72C U76A U78C,0.15

row,Variant,self-cleavage
1,A5U A15U U31G G33C U78C,0.07
2,A5U A18G A35G U41A U67A,0.44
3,A5U A18G A35G U69C U78C,1.37
4,A5U A18G A45G,0.36
5,A5U A18G C27U,0.13
6,A5U A18G C29U A35G U48C U72C,0.21
7,A5U A18G U25C A28U U51C U60C U72G,0.05
8,A5U A18G U26C C50U U69C,0.65
9,A5U A18G U48A,0.63
10,A5U A18G U60A,0.55
11,A5U A18G U78C,0.75
12,A5U A18U G33A A45U,0.48
13,A5U A18U G33C U43A U48C,0.24
14,A5U A18U U26C C39A A45G A64U G73A,0.46
15,A5U A18U U58A U74C,0.36
16,A5U A18U U67C,0.14
17,A5U A20G A28G U31G U43C,0.14
18,A5U A20G A47G U51A G53U U69C U72G,0.85
19,A5U A20G A57G U58C,0.36
20,A5U A20G A77U,0.86
21,A5U A20G C29U U41A U54C U78C,0.03
22,A5U A20G C40G U60G U80C,0.35
23,A5U A20U A21G,0.27
24,A5U A20U A21G A28G G30A C50A G63C,0.05

row,Variant,self-cleavage
1,A5U A20U A21G U58C,0.27
2,A5U A20U U26A U51A G53A U80A,0.42
3,A5U A20U U48C,0.13
4,A5U A20U U72A U76C U80C,0.52
5,A5U A21G A47G U48C U80C,0.39
6,A5U A21G A77G,0.59
7,A5U A21G U25C C40U A57G,0.06
8,A5U A21G U25C U51C G53A,0.31
9,A5U A21G U66C U67C,0.25
10,A5U A21G U67C U76C,0.15
11,A5U A21U A35U C62U A65U,0.13
12,A5U A21U U58C U78A,0.11
13,A5U A28G A35G C44G,0.56
14,A5U A28G A47U U67C C68G,0.15
15,A5U A28G U31C A45C U58C U69C G73C,0.18
16,A5U A28U C29A,0.45
17,A5U A28U C50A U51A U67A,0.29
18,A5U A28U U41C U58C U66C,0.24
19,A5U A28U U43A,1.03
20,A5U A28U U43C,0.75
21,A5U A28U U43C U54G,0.37
22,A5U A28U U60A,0.44
23,A5U A28U U60C,0.83
24,A5U A28U U66C U72C U80A,0.57

row,Variant,self-cleavage
1,A5U A35C A56G U67C U69C G70U,0.2
2,A5U A35G A45G U51C U69A,1.08
3,A5U A35G A47G,1.42
4,A5U A35G A56G A57U,1
5,A5U A35G C62U U80A,0.21
6,A5U A35G G61A C68U U69C U74C,1.21
7,A5U A35G U41A A45G A64G,0.5
8,A5U A35G U41A A45U G53A,0.29
9,A5U A35G U43C A56G U66C,0.18
10,A5U A35G U60A A77G,0.84
11,A5U A35U C38U C71U,0.35
12,A5U A45G U48C A64G U66C U80C,0.19
13,A5U A45G U49C U60A A64G,0.41
14,A5U A45U U66A U80C,0.23
15,A5U A47G U49A,0.47
16,A5U A47G U60C,0.46
17,A5U A56G U60A U76C,0.69
18,A5U A57G C59A U72C,0.29
19,A5U A64U C71G,0.37
20,A5U A65C U69C U72A,0.15
21,A5U A65U U67A,0.21
22,A5U A65U U69C U72C,0.24
23,A5U A65U U72C U78C,0.22
24,A5U A77G U80A,1.19

row,Variant,self-cleavage
1,A5U C11G A56U,0.18
2,A5U C11U A18G U41A A64G,0.12
3,A5U C11U A18U U26C U41A U60C U67A,0.05
4,A5U C11U A56G,0.4
5,A5U C11U C12U U41C A65U U72C,0.21
6,A5U C11U U49C U54A,0.11
7,A5U C11U U60A,0.42
8,A5U C12G A15G U48A,0.42
9,A5U C12U A15G U72C,1.16
10,A5U C12U U43C U49C U54C U76C U78C,0.07
11,A5U C14U C39A U67C,0.1
12,A5U C17G A21G A28G A35U,0.11
13,A5U C17U G46A,0.31
14,A5U C23A U80C,0.39
15,A5U C23G A45G,0.25
16,A5U C27A G33A U67C,0.14
17,A5U C27G A45G U60C U74C,0.15
18,A5U C29G A35U U54C,0.17
19,A5U C29U U49C A64U,0.08
20,A5U C32U U54A,0.13
21,A5U C34U U43C A47G U60C U72C U80A,0.1
22,A5U C37A A45G U49C U60C U66A A77U,0.07
23,A5U C37G U60A,0.25

# — the RNAGym collection of RNA variant scans (doi:10.1093/nar/gkz1192)
